Data reported in patent US20200392203A1 (YEDA RESEARCH AND DEVELOPMENT, published 2020).

How the values were obtained:
Assay in all cases: cell-based or functional assay
[1] = biological target: T1, native spike complex (glycoprotein complex, GPC) of Machupo virus (MACV) (Machupo virus (MACV), UniProt Q6IUF7 2-496)
T1 sequence: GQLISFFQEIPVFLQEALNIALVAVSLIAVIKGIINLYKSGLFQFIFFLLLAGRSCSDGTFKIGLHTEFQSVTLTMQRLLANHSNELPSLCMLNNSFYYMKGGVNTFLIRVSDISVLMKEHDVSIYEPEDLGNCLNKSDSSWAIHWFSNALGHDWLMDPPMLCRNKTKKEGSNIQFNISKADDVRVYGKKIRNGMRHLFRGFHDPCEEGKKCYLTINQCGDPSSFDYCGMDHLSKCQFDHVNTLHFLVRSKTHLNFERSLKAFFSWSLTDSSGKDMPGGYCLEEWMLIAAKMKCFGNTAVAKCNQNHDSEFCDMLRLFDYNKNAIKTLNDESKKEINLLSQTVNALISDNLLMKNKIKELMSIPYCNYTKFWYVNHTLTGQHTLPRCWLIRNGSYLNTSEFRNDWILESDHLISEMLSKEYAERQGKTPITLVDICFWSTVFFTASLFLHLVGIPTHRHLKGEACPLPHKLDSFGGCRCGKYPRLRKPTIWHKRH

[2] = biological target: T1, native spike complex (glycoprotein …); remark: listed apart in the source
[3] = biological target: T2, native spike complex (glycoprotein complex, GPC) of Guanarito virus (GTOV) (Guanarito virus (GTOV), UniProt Q8AYW1 2-479)
T2 sequence: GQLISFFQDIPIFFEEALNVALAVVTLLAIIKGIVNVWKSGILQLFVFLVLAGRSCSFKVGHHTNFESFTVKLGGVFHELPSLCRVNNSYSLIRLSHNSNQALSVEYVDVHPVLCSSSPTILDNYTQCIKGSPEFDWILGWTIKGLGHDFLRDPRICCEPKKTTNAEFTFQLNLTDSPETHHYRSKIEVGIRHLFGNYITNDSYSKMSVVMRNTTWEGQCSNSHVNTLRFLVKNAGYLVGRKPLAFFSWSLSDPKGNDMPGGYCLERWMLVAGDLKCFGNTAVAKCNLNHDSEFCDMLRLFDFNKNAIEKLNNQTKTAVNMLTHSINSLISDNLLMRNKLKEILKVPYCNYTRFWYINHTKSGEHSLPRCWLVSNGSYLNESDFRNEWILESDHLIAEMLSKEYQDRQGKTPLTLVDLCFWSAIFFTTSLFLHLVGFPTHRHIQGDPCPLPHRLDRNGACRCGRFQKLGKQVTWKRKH

B1: Arenacept (sAD fused at its C'-terminus to an Fc portion of IgG1) (Fc fusion)
chain: GSKIQVKCSAPNSVTITNASGGLYLVEYPEGYVAYSKATEVTGKLVHANFGTKKDFEDLDYAVNGSIVIVRAGKITIAEKVANAQSFNAIGVLIYKDRTKYPISRADEPLQGHSGLPSIPVQTISREAAEKLFQNMERDCPRSWNTDSSCKLELLQNRNVKLTVNNCLKEGTENLYFQGS[here human IgG1 Fc without letters]
[1]
  pseudovirus neutralisation, IC50 (read off the curve): ~4 nM
[2]
  IC50 values (µg/ml), neutralization of pseudotyped virus: 0.5 µg/mL
[3]
  IC50 values (µg/ml), neutralization of pseudotyped virus: 1.8 µg/mL
